Paper PMC6919601, “Identification of Plasmodium dipeptidyl aminopeptidase allosteric inhibitors by high throughput screening” (PLoS ONE, 2019)
Out of some 110,000 compounds screened, about 230 (0.21%) showed an effect of 50% or more. Some of the results follow.

Molecular target: DPAP1 (Plasmodium falciparum, UniProt Q8IIJ9)
Experiment: primary screen, percent inhibition; read by cleavage of a fluorogenic dipeptide substrate; higher = more effect of the substance
Design: species or system P. falciparum D10 trophozoite lysates; single well
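Note: 30 min substrate incubation versus DMSO and 10 µM JCP410 controls.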

DPAP1, sequence (Q8IIJ9 whole entry, looked up): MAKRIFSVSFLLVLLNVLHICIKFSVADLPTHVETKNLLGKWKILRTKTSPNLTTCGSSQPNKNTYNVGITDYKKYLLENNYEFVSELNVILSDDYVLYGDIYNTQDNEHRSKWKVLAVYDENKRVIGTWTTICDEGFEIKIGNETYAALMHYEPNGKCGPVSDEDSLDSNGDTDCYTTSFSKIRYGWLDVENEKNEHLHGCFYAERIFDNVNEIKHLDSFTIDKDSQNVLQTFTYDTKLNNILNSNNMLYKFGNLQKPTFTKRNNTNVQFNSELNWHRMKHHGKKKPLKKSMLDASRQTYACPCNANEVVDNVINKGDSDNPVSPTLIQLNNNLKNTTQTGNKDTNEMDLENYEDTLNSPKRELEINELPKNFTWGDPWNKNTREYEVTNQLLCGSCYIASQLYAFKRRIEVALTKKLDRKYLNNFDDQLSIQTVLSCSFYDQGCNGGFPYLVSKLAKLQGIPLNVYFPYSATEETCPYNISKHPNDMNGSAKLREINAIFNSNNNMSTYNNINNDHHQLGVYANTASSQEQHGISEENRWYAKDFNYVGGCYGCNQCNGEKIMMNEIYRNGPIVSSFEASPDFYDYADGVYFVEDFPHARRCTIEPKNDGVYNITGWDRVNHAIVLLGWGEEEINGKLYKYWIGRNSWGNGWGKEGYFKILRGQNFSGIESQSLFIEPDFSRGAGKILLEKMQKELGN

Row | SMILES | % Inhibition @ 10 uM [%]
1 | COc1ccc(-c2cn3c(n2)sc2cc(C(=O)NC4CCCC4)ccc23)cc1 | 2.73
2 | CC1CCN(S(=O)(=O)c2cc(Br)ccc2Br)CC1 | -8.57
3 | CC(=O)CC1(O)C(=O)Nc2ccccc21 (stereo not drawn) | -1.29
4 | CCOc1ccc(-c2[nH]nc3c2C2(C(=O)Nc4ccc(C)c(Br)c42)C(C#N)=C(N)O3)cc1 (stereo not drawn) | -4.67
5 | N#CC1=C(N)Oc2cc(N)ccc2C1c1cccnc1 (stereo not drawn) | 1.35
6 | CCOC(=O)c1c(NC(=O)/C=C/C(=O)O)sc2c1CC(C(C)C)OC2 (stereo not drawn) | -1.52
7 | O=C(CCCN1C(=O)c2ccccc2C1=O)Nc1ccc(S(=O)(=O)Nc2nccs2)cc1 | -0.638
8 | CC(C)(C)NC(=O)C(=O)NCc1ccc(Cl)cc1Cl | 3.35
9 | CC(C)(C)NS(=O)(=O)c1ccc(OCC(=O)NCc2ccco2)cc1 | -3.92
10 | Cc1oc2ccc(O)c(CN3CCN(C)CC3)c2c1C(=O)NC1CCCCC1 | -6.72
11 | CC(=O)Nc1cc2nn(-c3ccc(Cl)cc3)nc2cc1C | -1.07
12 | CC(=O)Nc1cccc(N2CCCC2=O)c1 | 6.09
13 | CCCCn1c(-c2ccc(OCC)cc2)cnc1NCc1ccccc1O | -2.91
14 | O=C(CSC1=NCCS1)N1CCN(c2ccc(Cl)cc2)CC1 | 2.32
15 | CCCCCCNC(=O)Cc1c(C)nc2cc(-c3ccccc3)nn2c1C | -2.25
16 | Fc1ccccc1N1CCN(Cc2ccc(Br)s2)CC1 | 0.847
17 | CC1=C(C(=O)OCC2CCCO2)C(c2cccc(Cl)c2Cl)CC(=O)N1 (stereo not drawn) | 3.67
18 | Cc1cc(C)n(-c2nc3ccccc3nc2Cl)n1 | 0.472
19 | Cc1oc2ccc(O)c(CN3CCOCC3)c2c1C(=O)OCC(C)C | -2.99
20 | CS(=O)(=O)N(CC(=O)Nc1ccc(CC#N)cc1)c1cccc(F)c1 | -0.303
21 | Cc1nn(-c2ccccc2)c2sc(C(=O)Nc3ccccc3C#N)cc12 | -2.97
22 | CCOC(=O)N1CCc2c(sc3c2C(=O)NC(c2cc(Br)ccc2OC)N3)C1 (stereo not drawn) | 4.08
23 | CCOC(=O)N1CCC(NC(=O)c2cc3c(s2)-c2ccc(Cl)cc2S(=O)(=O)C3)CC1 | 4.14
24 | N#CC1(NC(=O)[C@H](Cc2c(F)cccc2F)NC(=O)c2ccc(-c3ccccc3Cl)cc2)CCN(C2CC2)CC1 | -6.98
25 | CCOC(=O)C1=C(Cc2ccc(C)cc2)C(=O)c2ccccc2C1=O | 5.29

Row | SMILES | % Inhibition @ 10 uM [%]
26 | NC(=O)C1CCCN(CCCc2ccccc2)C1 (stereo not drawn) | -2.02
27 | CC(C)C[C@H](NC(=O)c1ccc(-c2ccc(F)cc2)cc1)C(=O)NCC#N | -1.41
28 | COc1ccc(-c2ccc(C#N)c(SCC(=O)Nc3ccc(OC)c(OC)c3)n2)cc1 | -5.01
29 | C=CCn1c(COc2cccc3ccc(C)nc23)nnc1SCC(N)=O | 2.12
30 | COc1ccc(C2C3=C(CCCC3=O)OC3=C2C(=O)CCC3)cc1OC | 2.47
31 | Cc1nn(CC(=O)NCc2ccc3c(c2)OCO3)c(=O)c2nn(-c3ccccc3)c(C)c12 | -1.59
32 | Cc1ccc(CNC(=O)C2CCC(Cn3c(=O)[nH]c4ccsc4c3=O)CC2)cc1 (stereo not drawn) | -3.27
33 | COc1ccc([N+](=O)[O-])cc1C1NC(=O)c2c(sc3c2CCCC3)N1 (stereo not drawn) | 12
34 | Cc1cccc(-c2nc(CS(=O)CC(=O)NCCCSC3CCCCC3)c(C)o2)c1 (stereo not drawn) | -2.85
35 | O=[N+]([O-])c1ccc(OCSc2ccccc2)cc1 | -6.29
36 | CC(=O)Nc1ccc(NC(=O)COc2ccc(C)cc2Br)cc1 | -2.8
37 | COc1ccc(N2CCN(C3CCN(Cc4ccccc4)CC3)CC2)cc1 | -4.75
38 | Cc1ccccc1OCCSc1nc(-c2cccs2)nc2cc(=O)[nH]n12 | -4
39 | Cc1nn(C(C)C(=O)NCc2ccccc2Cl)c(=O)c2nn(-c3ccccc3)c(C)c12 (stereo not drawn) | 0.227
40 | C#CC(C)(CC)NS(=O)(=O)c1cc(Cl)ccc1OC (stereo not drawn) | -0.403
41 | COC(=O)c1ccc(NC(=O)CN2CCN(c3ccccc3C)CC2)cc1 | 1.62
42 | COc1ccc(C)cc1NC(=O)C1C2C=CC(O2)C1C(=O)O (stereo not drawn) | 1.79
43 | O=C(Cn1c(=O)[nH]c2ccsc2c1=O)N(Cc1ccccc1)Cc1ccccc1 | -0.58
44 | CCOc1ccc(C(=O)Nc2cc(C)cc(C)c2)cc1 | 1.71
45 | Cc1cc(=O)oc2c1c(C)nn2-c1ccc(C(=O)OC(C)C)cc1 | 0.708
46 | CCCc1[nH]nc2c1C(c1ccc(F)cc1F)C(C#N)=C(N)O2 (stereo not drawn) | -0.661
47 | COCCCNC(=O)CN1C(=O)c2ccccc2S1(=O)=O | -7.96
48 | N#Cc1cc2c(nc1SCC(N)=O)CCC2 | 9.01
49 | Cc1cc(NC(=O)NC(=O)c2cccc(OC(F)(F)C(F)F)c2)[nH]n1 | -1.38
50 | CC1(C)Cc2ccccc2C2=C(C(=O)N3CCCCC3)C(=O)C(=O)N21 | 2.22

Row | SMILES | % Inhibition @ 10 uM [%]
51 | COC(=O)c1c[nH]n2c(NC3CCC(C)CC3)c(-c3ccc(C)cc3)nc12 (stereo not drawn) | 11.6
52 | CCOc1ccc2nc(/N=C(\N)NC(=O)c3ccccc3)nc(C)c2c1 | -5.82
53 | O=C(CCC1CCCCC1)N[C@@H](CCc1ccccc1)C(=O)c1nc2cc([N+](=O)[O-])ccc2o1 | -1.83
54 | CCOC(=O)N1CCc2c(sc3[nH]c(=O)n(Cc4ccccc4)c(=O)c23)C1 | 0.813
55 | CC(C)C[C@H](NC(=O)N1CCN(C(c2ccccc2)c2ccc(Cl)cc2)CC1)C(=O)NCC#N (stereo partly drawn) | -5.2
56 | NC(=O)/C=C/c1cccc([N+](=O)[O-])c1 | 2.94
57 | Cn1c2ccccc2c2c(C(=O)NCc3ccc(F)cc3)cn(C3CCCCC3)c(=O)c21 | 3.48
58 | COc1ccccc1C1CC(=O)N(C)C2=C1C(=O)CC(C)(C)C2 (stereo not drawn) | -6.88
59 | Cc1ccc(/C=C2/SC(=O)NC2=O)c(C)c1 | 4.38
60 | CCCOc1ccc(C(=O)CCN2CCN(C(=O)OCC)CC2)cc1 | 0.189
61 | CCOC(=O)N1CCC(NCCN(C)C)CC1 | 0.217
62 | O=C1CC(c2cccc(Cl)c2Cl)c2ccc3ccccc3c2N1 (stereo not drawn) | -2.35
63 | CCOC(=O)c1cnc2ccc(OCC)cc2c1NCCc1ccccc1 | -6.86
64 | CCOCCCNC(=O)C1CCCCN1S(=O)(=O)c1ccc(F)cc1 (stereo not drawn) | -9.05
65 | Cc1oc2ccc(O)c(CN(C)Cc3ccccc3)c2c1C(=O)NC1CCCCC1 | -2.99
66 | COc1cc(OC)c(-n2c(C)cc(/C=C3\C(=N)N4C(C)=CSC4=NC3=O)c2C)cc1Cl | -1.17
67 | CCCCNC(=O)C1CC(c2ccc(F)cc2)=NO1 (stereo not drawn) | -2.16
68 | CCOC(=O)N1CCN(C(=O)Cn2ncn3nc(-c4cccs4)cc3c2=O)CC1 | -1.3
69 | O=C(O)C1C2CCC(O2)C1C(=O)Nc1ccc(O)cc1 (stereo not drawn) | 0.231
70 | CC(C)(C)c1ccc(/C=C2\N=C(c3ccccc3F)OC2=O)cc1 | -2.05
71 | COc1cc(OC)cc(-c2cc3nc(C)c(CCC(=O)NC(C)c4ccccc4)c(C)n3n2)c1 (stereo not drawn) | 1.26
72 | Cc1nc2nc(C)c(CCC(=O)O)c(C)n2n1 | 2.39
73 | C=CCNC(=O)/C(C#N)=C/c1c(Oc2cccc(C)c2C)nc2ccccn2c1=O | 3.63
74 | CC1=C(C(=O)Nc2ccc(Br)cc2)C(c2ccc(Cl)cc2)NC(=O)N1 (stereo not drawn) | 1.35
75 | Cc1cc(C(F)F)n2nc(C(=O)Nc3c(F)cc(F)cc3Br)nc2n1 | -1.28

Row | SMILES | % Inhibition @ 10 uM [%]
76 | COc1cccc(CN2CCN(Cc3ccccc3Cl)CC2)c1OC | -5.23
77 | O=C(CSc1nc2ccccc2s1)Nc1ccc(Cl)c(C(=O)O)c1 | 2.7
78 | COc1ccc(C(=O)NCC(C)(C)CNC(=O)c2ccc(OC)cc2)cc1 | 5.18
79 | Oc1nc2cnccc2n1-c1ccccc1 | -8.21
80 | COCCNS(=O)(=O)c1cc(-c2nn(C)c(=O)c3ccccc23)ccc1C | -3.96
81 | CCCCN1C(=O)NC(=O)/C(=C\c2cn(Cc3ccccc3)c3ccccc23)C1=O | -5.01
82 | Cc1ccc(S(=O)(=O)N2CCC(C(=O)N3CCC(C(=O)NCCc4ccccc4)CC3)CC2)cc1 | 2.05
83 | Cc1cccc(CN2CCN(c3cccc(Cl)c3)CC2)c1 | -3.71
84 | O=C(NC1CC1)c1cc2nc(-c3ccco3)cc(C(F)(F)Cl)n2n1 | -17
85 | Cc1ccc(C(C#N)NC(=O)[C@H](CC(C)C)NC(=O)c2ccc(-c3ccccc3)cc2C)o1 (stereo partly drawn) | 1.71
86 | O=C(O)CCN(CCC(=O)O)c1nnc(SCc2ccccc2)s1 | 3.27
87 | CNS(=O)(=O)c1cn(CC(=O)NCCOC)cc1S(=O)(=O)NC | -5.9
88 | N#CCCN1c2ccccc2Sc2ccccc21 | -7.14
89 | CCOC(=O)c1cc2ccccc2n1C | 4.79
90 | CCN(CCN(C)C)Cc1ccc2c(c1)OCCO2 | -0.0648
91 | Cn1c(=O)[nH]c(=O)c2c1nc(SCCc1ccccc1)n2Cc1ccccc1 | -0.968
92 | O=C(/C=C/c1ccccc1Cl)NCc1ccccc1 | -0.351
93 | CCCCN1CN(CCc2ccccc2)CNC1=S | -5.62
94 | S=c1nc(-c2ccccc2)n(Cc2ccccc2)c2c1CCCC2 | -6.7
95 | CCOc1ccc(/C=C2/NC(=O)N(Cc3ccc(F)cc3)C2=O)c(OCC)c1 | -0.643
96 | Cc1ccccc1CN1CCN(Cc2cccc(F)c2)CC1 | 17.7
97 | CCOC(=O)c1ccc(OCC2c3cc(OC)c(OC)cc3CCN2C(=O)c2ccc(F)cc2)cc1 (stereo not drawn) | 10.9
98 | COC(=O)c1sc(N2C(=O)c3oc4ccccc4c(=O)c3C2c2ccc(C)o2)nc1C (stereo not drawn) | 2.16
99 | O=C(NCc1ccc(F)cc1)c1cc(-c2ccc(F)cc2)on1 | 0.0654
